The results in this text go back to PubChem BioAssay AID1745853 (National Center for Advancing Translational Sciences (NCATS), 2022).

Holding throughout (assay): Primary Screen for Target Class Profiling of Small Molecule Inhibitors of Methyltransferases
Assay [1] deals with Glycine N-methyltransferase (Homo sapiens) (UniProt Q14749). The following applies: purified enzyme, MTase-Glo SAH luminescence; measured here: GNMT inhibition; at 40 µM; stronger effect = lower value. In short, it runs like this: (§1)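 Each enzyme was reacted with SAM and its substrate, with compounds tested once at 40 uM; SAH formed was read by MTase-Glo luminescence.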
Assay [2] concerns the target Guanidinoacetate N-methyltransferase (Homo sapiens) (UniProt Q14353). The following applies: purified enzyme, MTase-Glo SAH luminescence; measured here: GAMT inhibition; at 40 µM; stronger effect = lower value. In short, it runs like this: as §1
In assay [3] the target is Histamine N-methyltransferase (Homo sapiens) (UniProt P50135). The following applies: purified enzyme, MTase-Glo SAH luminescence; measured here: HNMT inhibition; at 40 µM; stronger effect = lower value. In short, it runs like this: as §1
Assay [4] deals with Nicotinamide N-methyltransferase (Homo sapiens) (UniProt P40261). The following applies: purified enzyme, MTase-Glo SAH luminescence; measured here: NNMT inhibition; at 40 µM; stronger effect = lower value. In short, it runs like this:
as §1

Assay [5] deals with Phenylethanolamine N-methyltransferase (Homo sapiens) (UniProt P11086). As to conditions: purified enzyme, MTase-Glo SAH luminescence; measured here: PNMT inhibition; at 40 µM; stronger effect = lower value. Put shortly:
as §1

The structures appear in SMILES notation. Where “and” joins values, the source holds several entries; their conditions need not be identical. Equal entries are not always repeated. The list shows a part of the results. These are further read-outs of the screen, such as a control signal, another cell line or another target. No call is given for them.
% is scaled to controls: 0 for no effect and ±100 for the full control effect.

As for `O=S(=O)(c1ccccc1)N1CC(c2nc(Cc3cccnc3)no2)C1`, the activity change, negative = inhibition in assay [1] was -0.145%; in assay [2], -1.62%; in assay [3], 3.17%; in assay [4], -2.99%; in assay [5] it was 1.02%.

Turning to `COC(=O)c1ncn2c1C(=O)N(c1cccc(C)c1C)C(C)(C(=O)NCc1ccccc1OC)C2` (stereo not given), the activity change, negative = inhibition in assay [1] is -1.86%; in assay [2] it was 0%; in assay [3] it was 0.838%; in assay [4], -0.172%; in assay [5], -2.28%.

For the compound `Cc1cc(F)ccc1NC(=O)Cn1c(=O)oc2cc(S(=O)(=O)N3CCCC3)ccc21`, the activity change, negative = inhibition in assay [1] came out at 7.16%; in assay [2], 0%; in assay [3], 9.19%; in assay [4], 19.2%; in assay [5], 4.98%.

With `O=C(CCc1nnn2c1CN(C(=O)COc1ccc(F)cc1)CC2)N1CCCC1`, the activity change, negative = inhibition was -2.25% in assay [1]; -0.432% in assay [2]; -0.724% in assay [3]; -2.07% in assay [4]; -4.63% in assay [5].

In the case of `CCC(C)NC(=O)N1CCn2nnc(CCC(=O)N3CCOCC3)c2C1` (stereo not given), the activity change, negative = inhibition in assay [1] was -0.428%; in assay [2], 1.1%; in assay [3], 1.93%; in assay [4], -0.176%; in assay [5], 0.569%.

With `CCN(CC)CC[C@H]1CN(C(=O)C2CC2)CC[C@H]1CC(=O)O`, the activity change, negative = inhibition was -0.76% in assay [1]; -0.813% in assay [2]; 2.02% in assay [3]; -0.559% in assay [4]; 0.416% in assay [5].

On to `CC(C)OCCCNc1nc2c(-c3ccc(Cl)cc3)nnn2c2ccccc12`, for which the activity change, negative = inhibition in assay [1] was 2.5%; in assay [2], 12.5%; in assay [3] it was 8.28%; in assay [4], 12.4%; in assay [5], 2.81%.

Turning to `NC(N)=NC(=O)c1nc(Cl)c(N2CCCCCC2)nc1N`, the activity change, negative = inhibition was -2.28% in assay [1]; 7.98% in assay [2]; -6.07% in assay [3]; -9.89% in assay [4]; -1.56% in assay [5].

On to `CNC(=O)N1C[C@@H](CN(C)C)[C@H](NC(=O)c2ccsc2)C1`, for which the activity change, negative = inhibition in assay [1] was -4.58%; in assay [2] it was -1.83%; in assay [3], 1.71%; in assay [4], -1.68%; in assay [5], 0.353%.

In the case of `CC(=O)O[C@H](C[C@@H](C)[C@H]1C(=O)[C@H](O)[C@@]2(C)[C@@H]3CCC4C(C)(C)[C@@H](O[C@@H]5OC[C@H](O)[C@H](O)[C@H]5O)CC[C@@]45C[C@@]35CC[C@]12C)[C@@H]1OC1(C)C` (stereo not given in full), the activity change, negative = inhibition in assay [1] is -4.78%; in assay [2], -4.07%; in assay [3], 0.287%; in assay [4], -22.5%; in assay [5] it was -3.13%.

For the compound `Cc1cnc(C2CCC2)n1CCNC(=O)c1nccn1C`, the activity change, negative = inhibition in assay [1] was -5.45%; in assay [2], -7.74%; in assay [3], -6.26%; in assay [4], -14.9%; in assay [5] it was 10.3%.

As for `O=C(Cc1cccc(Cl)c1)NC1CCN(Cc2ccc(-c3ccsc3)cc2)C1` (stereo not given), the activity change, negative = inhibition in assay [1] is -11.6%; in assay [2], -9.86%; in assay [3] it was -16%; in assay [4] it was -25.1%; in assay [5], -28.4%.

As to `CN(C)CC1(O)CCC2(CCN(C(=O)c3cccn3C)CC2)CC1`, the activity change, negative = inhibition in assay [1] was -80.5%; in assay [2] it was -5.92%; in assay [3], -5.29%; in assay [4], -7.03%; in assay [5] it was 8.09%.

`CC(C)(Cc1ccc(F)cc1)NC(=O)CC1C(=O)NCCN1Cc1ccoc1` (stereo not given): the activity change, negative = inhibition is -9.78% in assay [1]; -7.26% in assay [2]; -1.28% in assay [3]; -12.5% in assay [4]; -13.8% in assay [5].

For `O=c1cc(-c2ccccc2)c2ccc(OCc3ccccc3)cc2o1`, the activity change, negative = inhibition in assay [1] was -1.83%; in assay [2], 0%; in assay [3], 7.57%; in assay [4] it was 3.89%; in assay [5], -1.91%.

With `COc1cc(O)c2c(c1)C1(OC2=O)C(C)=CC(=O)C1O` (stereo not given), the activity change, negative = inhibition in assay [1] is 1.77%; in assay [2], 7.07%; in assay [3] it was 9.81%; in assay [4], -5.41%; in assay [5], 4.04%.

On to `CC1=C(CC(=O)O)c2cc(F)ccc2/C1=C\c1ccc(S(C)(=O)=O)cc1`, for which the activity change, negative = inhibition was -12.1% in assay [1]; 2.1% in assay [2]; -1.94% in assay [3]; -9.56% in assay [4]; 1.67% in assay [5].

For the compound `Cc1ccc(Cn2c(=O)c3ccccc3n3c(CCC(=O)N4CCN(c5ncccn5)CC4)nnc23)cc1`, the activity change, negative = inhibition is -8.47% in assay [1]; 2.21% in assay [2]; -1.6% in assay [3]; -3.1% in assay [4]; -4.93% in assay [5].

For `Cc1cccc(OCC(=O)N2CCC[C@H]2c2nc(-c3ccc(F)cc3)n[nH]2)c1`, the activity change, negative = inhibition in assay [1] is -4.17%; in assay [2], -3.59%; in assay [3], -1.67%; in assay [4] it was -8.44%; in assay [5] it was 0.944%.

Turning to `CC(C)N(CCCNC(=O)Nc1ccc(C(C)(C)C)cc1)C[C@H]1O[C@@H](n2cc(Br)c3c(N)ncnc32)[C@H](O)[C@@H]1O`, the activity change, negative = inhibition in assay [1] was -91% and -76.1%; in assay [2] it was -57.6%; in assay [3], -83.3%; in assay [4], -185% and -81.9%; in assay [5] it was -94.5%.

For `COc1ccc(-c2csc(NC(=O)[C@H]3CCCCN3S(=O)(=O)c3ccc(C)cc3)n2)cc1`, the activity change, negative = inhibition was 5.19% in assay [1]; -20.7% in assay [2]; 3.42% in assay [3]; -34.4% in assay [4]; -10.8% in assay [5].

Regarding `CN1C(=O)c2cc(C(=O)NC3CCCCCC3)nn2CC1(C)C(=O)NCc1ccc(F)cc1` (stereo not given), the activity change, negative = inhibition in assay [1] was found to be 6.33%; in assay [2], 0%; in assay [3] it was 5.19%; in assay [4], 6.43%; in assay [5], 1.97%.

With `COCC(=O)N[C@@H]1CN(Cc2cccn2C)C[C@H]1CO`, the activity change, negative = inhibition in assay [1] is -3.48%; in assay [2], -1.95%; in assay [3] it was 0.987%; in assay [4] it was -0.135%; in assay [5], -4.64%.

As for `CC1(C(=O)NC2CCCCC2)Cn2c(ccc2-c2ccco2)C(=O)N1Cc1ccc(Cl)cc1` (stereo not given), the activity change, negative = inhibition was -10.8% in assay [1]; -0.204% in assay [2]; 4.53% in assay [3]; -11.8% in assay [4]; -5.29% in assay [5].

With `CCOc1ccccc1N1CCN(Cc2ccc(=O)n(CC)c2)CC1`, the activity change, negative = inhibition was -1.55% in assay [1]; 0.82% in assay [2]; 1.03% in assay [3]; -4.15% in assay [4]; 9.08% in assay [5].

For `O=C([C@@H]1C[C@H](F)CN1C(=O)NC1CCCCC1)N1CCc2ccccc2C1`, the activity change, negative = inhibition in assay [1] was -6.95%; in assay [2], -5.44%; in assay [3], 0.071%; in assay [4] it was -12.2%; in assay [5], -9.81%.

Turning to `CN1C(=O)C(c2ccccc2)CC12CCN(S(=O)(=O)N(C)C)CC2` (stereo not given), the activity change, negative = inhibition in assay [1] is -5.12%; in assay [2], -5.71%; in assay [3] it was -1.78%; in assay [4], -8.6%; in assay [5], 1.13%.

For the compound `COc1ccc(CCNC(=O)CCc2nnc3n(CCCOC(C)C)c(=O)c4ccccc4n23)cc1OC`, the activity change, negative = inhibition was -5.28% in assay [1]; -1.99% in assay [2]; 3.7% in assay [3]; -1.83% in assay [4]; -8.06% in assay [5].

`COc1ccc(CCNC(=O)c2cc3n(n2)CC(C)(C(=O)NC2CCCC2)N(C)C3=O)cc1OC` (stereo not given): the activity change, negative = inhibition came to 3.25% in assay [1]; 0.482% in assay [2]; 0.59% in assay [3]; 2.75% in assay [4]; 3.94% in assay [5].
